Experimental data: PubChem BioAssay AID504706 (National Center for Advancing Translational Sciences (NCATS), 2011)
About 200 (0.062%) of roughly 320,000 compounds were called active. The shares of active, inactive and inconclusive entries below differ from those in the screen. Calls come from the whole dose curve; as a rule, active = well fitted activation curve with a large enough effect; inconclusive = small, poorly fitted or top-dose-only effect; inactive = no such curve, though single readings can be large or run the other way. Potencies of inconclusive entries are left out as doubtful fits.

Assay: qHTS assay for re-activators of p53 using a Luc reporter; note: nearly all actives have a fitted effect of over 45% in size
Conditions: H1299 p53-A138V BP100-luciferase reporter, luminescence, 24 h; series mostly up to 92.2 µM
Outline: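 p53-null H1299 cells stably carrying temperature-sensitive p53-A138V and a BP100-luciferase reporter were pinned with compounds (4-point, 1:5 series) and held 24 hrs at 37 deg C. Luminescence was read 10 min after detection reagent.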
Potency is the fitted concentration of half-maximal effect; tags give direction and shape of the fitted curve.

Compound	Potency
C=CCN1C(=O)C(O)=C(C(C)=O)C1c1ccccc1F (stereo not drawn)	inconclusive [activator, single point]
Oc1cccc(NC(=S)Nc2ccc(SC(F)F)cc2)c1	inconclusive [activator, partial curve, poor fit]
C#CCOc1nc(C)cc(C)c1S(=O)(=O)c1ccccc1C	inactive
COc1ccc(-c2nnc(SCC(=O)N3CCc4ccccc4C3)o2)cc1	inconclusive [activator, partial curve, poor fit]
COc1ccc(C2(c3ccc(OC)cc3)NC(=O)N(CC(=O)N(C)c3ccccc3)C2=O)cc1	inconclusive [activator, single point]
Cc1ccc2nc(NC(=O)COC(=O)c3ccccn3)sc2c1	inconclusive [activator, partial curve, poor fit]
CCCc1c(C)c2ccccc2[nH]c1=O	inactive
O=C(c1ccccc1-c1nc(-c2ccccc2)no1)N1CCCC1	inconclusive [activator, partial curve]
CCNC(=S)N/N=C/c1sc(N2CCCCC2)nc1-c1cccs1	inactive
S=C(Nc1ccc(Cl)cc1Cl)N1CCCCC1	inconclusive [activator, partial curve]
CCN1C(=O)/C(=C2\SC(N3CCOCC3)=NC2=O)c2ccccc21	inactive
Cc1occc1C(=O)Nc1cc(C(C)(C)C)on1	inconclusive [activator, partial curve, poor fit]
Cc1ccc(C)c(Oc2cc(NC(=O)CCCn3nc(C)c([N+](=O)[O-])c3C)cc([N+](=O)[O-])c2)c1	inconclusive [activator, partial curve, poor fit]
COc1ccc(OC)c(S(=O)(=O)N2Cc3ccccc3CC2C(=O)Nc2nccs2)c1 (stereo not drawn)	inconclusive [activator, partial curve, poor fit]
C/C(=N\NC(=O)c1ccccc1N)c1ccc(NC(=O)Cc2ccccc2)cc1	inconclusive [activator, full curve, poor fit]
NC(=O)c1nsnc1-c1ccccc1O	inactive
Cc1ccc(Nc2ccc([N+](=O)[O-])nc2[N+](=O)[O-])cc1	inconclusive [activator, full curve, poor fit]
Cc1nc(N2CCN(Cc3ccc4c(c3)OCO4)CC2)nc2c1C(=O)CC(c1ccco1)C2 (stereo not drawn)	inactive
Cc1ccc(-c2csc(NC(=O)c3ccc(Br)cc3)c2C(=O)O)cc1	inconclusive [activator, partial curve, poor fit]
CCc1cc(C(=O)NNC(=S)Nc2ccccc2C)cs1	inconclusive [activator, partial curve, poor fit]
CCc1c(C)sc(NC(=O)c2cccs2)c1C#N	inactive
COc1cccc(NC(=O)CC(=O)c2ccccc2)c1	inconclusive [activator, partial curve, poor fit]
O=C(NNC(=S)Nc1cccc(C(F)(F)F)c1)c1ccccc1Cl	inconclusive [activator, single point]

Compound	Potency
OC1(C(F)(F)F)CC(c2ccc3ccccc3c2)=NO1 (stereo not drawn)	active: 35.5 µM
O=C(OCC(=O)c1c[nH]c2ccccc12)c1cccc(O)c1	inconclusive [activator, single point]
CN(C)c1ccc(N=Cc2nc(-c3ccccc3)oc2OC(=O)c2ccccc2)cc1	inconclusive [activator, full curve, poor fit]
COC(=O)C1CCN(C(=O)CCCOc2ccccc2)CC1	inconclusive [activator, partial curve, poor fit]
CCN(CC)S(=O)(=O)c1ccc(C(=O)OCC(=O)Nc2ccc(-c3nc4ccc(C)cc4s3)cc2)cc1	inconclusive [activator, partial curve, poor fit]
Cc1ccc(NC(=O)Nc2ccccc2)c(Br)c1	inconclusive [activator, full curve, poor fit]
CCN(CC)c1ccc(NC(=O)/C=C/c2cc(Br)ccc2OC)cc1	inactive
NCCCn1c(C(=O)c2cc(Cl)c(N)c(Cl)c2)c2ccc([N+](=O)[O-])cc2[n+]1[O-]	inactive
COc1ccc(-c2nnc(SC(C)C(=O)Nc3cccc(Cl)c3)o2)cc1 (stereo not drawn)	inactive
COc1cc([N+](=O)[O-])cc(/C=N/NC(=O)c2ccc(C)nc2)c1O	inactive
Cn1c(=N)n(CC(O)c2ccccc2)c2ccccc21 (stereo not drawn)	inconclusive [activator, partial curve, poor fit]
Cc1ccc(O)c(N=Nc2nccs2)c1	inconclusive [activator, partial curve, poor fit]
COc1ccccc1-c1cc(C(=O)N2CCCC2)no1	inconclusive [activator, full curve, poor fit]
Cc1ccc(Nc2ncnc3c2oc2ccccc23)cc1	inconclusive [activator, full curve, poor fit]
CCOC(=O)c1c(C)[nH]c(C(=O)OCc2ccccc2F)c1C	inconclusive [activator, full curve, poor fit]
O=C(CC(Nc1ccc(F)cc1)C(=O)OCC(=O)c1cccs1)c1ccccc1 (stereo not drawn)	inconclusive [activator, partial curve, poor fit]
COc1ccc(-c2cn3cc(C(F)(F)F)cc(Cl)c3n2)cc1	inconclusive [activator, full curve, poor fit]
O=C(NNc1nc(-c2ccc(Cl)cc2)cs1)c1ccco1	inconclusive [activator, partial curve, poor fit]
O=C(NN1C(=O)/C(=C/c2cccs2)SC1=S)c1ccccc1	inconclusive [activator, partial curve, poor fit]
CSc1nsc(SCC(=O)Nc2ccc(C(C)=O)cc2)n1	inconclusive [activator, partial curve, poor fit]
COc1ccc(C(NC(=O)/C=C\c2ccco2)c2ccc(OC)c(OC)c2)cc1 (stereo not drawn)	inconclusive [activator, single point]
CN(C)CCNC(=O)c1ccc(COCC(F)(F)F)cc1	inconclusive [activator, single point]
CC(Cc1ccccc1)NC(=O)c1cc2ccccc2o1 (stereo not drawn)	inconclusive [activator, full curve, poor fit]

Compound	Potency
Cc1ccc(N=Nc2c(C)[nH]n(C(N)=S)c2=O)cc1C	inconclusive [activator, partial curve, poor fit]
O=C(N/N=C/c1ccc2c(c1)OCO2)C(O)c1ccccc1 (stereo not drawn)	inconclusive [activator, full curve]
Cc1cc(C)cc(NC(=S)N2CCC(NC(=O)c3ccco3)CC2)c1	inactive
COc1ccccc1CCNC(=O)c1ccc(OC)c(OC2CCN(C(C)C)CC2)c1	inconclusive [activator, partial curve, poor fit]
CC(=O)c1cc(O)c2ccccc2c1O	inconclusive [activator, partial curve, poor fit]
CCCCCOc1ccc(CN2CCOCC2)cc1Cl	inconclusive [activator, partial curve, poor fit]
C/C(=N/Nc1ccc(C(=O)O)cc1)c1ccc(O)c(O)c1O	inconclusive [activator, partial curve, poor fit]
O=C(CCN1C(=O)C2C3C=CC(C3)C2C1=O)NCc1cccnc1 (stereo not drawn)	inactive
Cc1ccc(N2C(=O)C3C4CCC(O4)C3C2=O)c(OC(F)F)c1 (stereo not drawn)	inactive
CCOC(=O)N1CCN(C(=O)c2ccc(-n3c(C)ccc3C)cc2)CC1	inconclusive [activator, partial curve, poor fit]
O=C(Nc1ccc(NC(=O)C2CC2)cc1)c1ccco1	inconclusive [activator, full curve, poor fit]
COc1ccc2c(c1)OC(c1ccccc1)(C(F)(F)F)NC2=O (stereo not drawn)	inactive
COc1ccc(NC(=O)CCOc2ccccc2)cc1	inconclusive [activator, full curve, poor fit]
CN1/C(=C\C=N\NC(=O)c2cccnc2)C(C)(C)c2ccccc21	inactive
CCN(c1ccccc1)S(=O)(=O)c1ccc(C(=O)Nc2nnc(-c3ccco3)o2)cc1	inactive
Cc1ccc(S(=O)(=O)c2c(N)n(NC(=O)c3ccccc3C)c3nc4ccccc4nc23)cc1	inactive
c1cnc(SCCCOc2ccc3ccccc3c2)nc1	inconclusive [activator, partial curve, poor fit]
COc1ccc(CCNS(=O)(=O)c2ccc(Br)s2)cc1	inconclusive [activator, single point]
CCOC(=O)c1nc2ccccc2s1	inconclusive [activator, full curve, poor fit]
O=C(c1ccccc1)n1ccc(-c2cnc(-c3ccccc3)s2)n1	inconclusive [activator, partial curve, poor fit]
CCOC(=O)N1CCN(C(=O)/C=C/c2ccc(OC)cc2)CC1	inactive
CC1CCCCN1C(=S)NCCc1ccccc1 (stereo not drawn)	inconclusive [activator, full curve, poor fit]
